From article PMC6904361, “Vitamin D Receptor Inhibits NLRP3 Activation by Impeding Its BRCC3-Mediated Deubiquitination” (Frontiers in Immunology, 2019)
Where two headings read alike, the source gives them in different places. No constants are given. Whether binding was seen depends on the method and setting. Binding seen in cells or lysates may run through a third protein. Some entries that bind do so weakly or less than the wild type. For some of these results: Tags and fused reporters may be left off the sequences shown. One block for each molecule: values may come before it.

Sequences of proteins named here, by UniProt entry; tags and fusion partners are left off.
UniProt Q8R4B8: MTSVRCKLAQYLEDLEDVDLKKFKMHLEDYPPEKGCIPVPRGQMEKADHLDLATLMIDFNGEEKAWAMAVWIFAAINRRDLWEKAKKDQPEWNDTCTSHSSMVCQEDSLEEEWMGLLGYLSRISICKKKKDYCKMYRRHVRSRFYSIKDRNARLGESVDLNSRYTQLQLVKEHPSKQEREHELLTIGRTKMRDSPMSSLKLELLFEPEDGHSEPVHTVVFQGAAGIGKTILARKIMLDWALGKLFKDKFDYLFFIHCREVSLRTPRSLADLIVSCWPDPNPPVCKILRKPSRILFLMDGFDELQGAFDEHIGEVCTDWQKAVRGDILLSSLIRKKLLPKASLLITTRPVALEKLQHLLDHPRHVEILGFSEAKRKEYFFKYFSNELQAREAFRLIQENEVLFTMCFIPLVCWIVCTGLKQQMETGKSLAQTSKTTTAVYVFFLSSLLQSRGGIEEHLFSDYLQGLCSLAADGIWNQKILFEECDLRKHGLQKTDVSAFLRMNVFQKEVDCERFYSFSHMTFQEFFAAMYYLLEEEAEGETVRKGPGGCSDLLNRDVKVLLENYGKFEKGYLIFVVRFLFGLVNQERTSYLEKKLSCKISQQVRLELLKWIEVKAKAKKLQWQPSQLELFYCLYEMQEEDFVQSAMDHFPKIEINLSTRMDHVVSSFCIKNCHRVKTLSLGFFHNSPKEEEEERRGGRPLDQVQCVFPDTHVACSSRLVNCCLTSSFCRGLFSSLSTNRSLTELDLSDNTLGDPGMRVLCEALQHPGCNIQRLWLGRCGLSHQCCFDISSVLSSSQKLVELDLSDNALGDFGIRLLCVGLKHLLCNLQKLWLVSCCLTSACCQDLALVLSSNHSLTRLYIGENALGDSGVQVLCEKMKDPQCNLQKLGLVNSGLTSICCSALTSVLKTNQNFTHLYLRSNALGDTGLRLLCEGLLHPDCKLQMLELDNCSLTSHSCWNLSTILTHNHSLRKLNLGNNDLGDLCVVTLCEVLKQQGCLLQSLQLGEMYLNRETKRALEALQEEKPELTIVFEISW
UniProt Q96P20: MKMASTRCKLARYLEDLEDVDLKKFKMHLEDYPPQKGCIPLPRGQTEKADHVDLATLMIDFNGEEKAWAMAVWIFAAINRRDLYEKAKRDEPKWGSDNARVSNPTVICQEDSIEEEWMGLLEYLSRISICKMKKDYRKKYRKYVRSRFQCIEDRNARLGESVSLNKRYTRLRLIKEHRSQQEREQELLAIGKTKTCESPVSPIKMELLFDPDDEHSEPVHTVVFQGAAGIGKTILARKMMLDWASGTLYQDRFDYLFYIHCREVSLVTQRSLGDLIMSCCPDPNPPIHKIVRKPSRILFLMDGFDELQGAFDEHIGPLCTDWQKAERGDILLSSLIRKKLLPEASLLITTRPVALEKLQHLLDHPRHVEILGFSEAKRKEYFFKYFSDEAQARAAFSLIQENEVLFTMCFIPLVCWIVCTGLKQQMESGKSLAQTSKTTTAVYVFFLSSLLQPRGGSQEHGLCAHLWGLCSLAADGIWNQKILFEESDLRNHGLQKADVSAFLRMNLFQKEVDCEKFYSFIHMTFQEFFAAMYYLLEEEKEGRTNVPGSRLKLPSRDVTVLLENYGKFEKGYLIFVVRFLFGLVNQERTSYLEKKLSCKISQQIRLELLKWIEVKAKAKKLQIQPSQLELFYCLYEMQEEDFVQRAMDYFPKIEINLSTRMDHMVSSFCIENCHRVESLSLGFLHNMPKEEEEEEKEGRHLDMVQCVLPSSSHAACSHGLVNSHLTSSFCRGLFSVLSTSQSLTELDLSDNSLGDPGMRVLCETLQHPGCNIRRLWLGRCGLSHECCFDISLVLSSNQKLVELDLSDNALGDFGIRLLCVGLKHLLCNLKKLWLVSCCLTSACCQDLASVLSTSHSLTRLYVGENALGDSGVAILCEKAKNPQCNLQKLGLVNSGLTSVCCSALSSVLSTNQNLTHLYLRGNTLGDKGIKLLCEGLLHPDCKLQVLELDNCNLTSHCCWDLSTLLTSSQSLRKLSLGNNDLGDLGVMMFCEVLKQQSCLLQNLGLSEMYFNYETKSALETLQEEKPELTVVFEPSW
UniProt Q9ULZ3: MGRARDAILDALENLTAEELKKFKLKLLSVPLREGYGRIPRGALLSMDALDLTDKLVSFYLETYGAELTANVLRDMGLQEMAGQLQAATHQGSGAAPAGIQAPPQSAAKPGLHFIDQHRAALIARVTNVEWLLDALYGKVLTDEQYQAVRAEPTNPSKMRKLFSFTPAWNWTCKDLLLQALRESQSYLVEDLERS
UniProt P29466: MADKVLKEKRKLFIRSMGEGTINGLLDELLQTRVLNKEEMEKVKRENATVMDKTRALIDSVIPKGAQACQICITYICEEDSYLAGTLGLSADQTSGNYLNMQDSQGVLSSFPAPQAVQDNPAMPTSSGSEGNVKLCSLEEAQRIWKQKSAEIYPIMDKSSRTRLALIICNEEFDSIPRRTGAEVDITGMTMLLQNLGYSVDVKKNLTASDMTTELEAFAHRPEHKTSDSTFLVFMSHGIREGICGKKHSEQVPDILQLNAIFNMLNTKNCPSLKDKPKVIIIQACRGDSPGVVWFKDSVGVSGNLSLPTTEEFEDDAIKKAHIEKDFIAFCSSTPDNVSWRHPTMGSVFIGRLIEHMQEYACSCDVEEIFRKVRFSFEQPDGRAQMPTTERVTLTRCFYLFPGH
UniProt P46737: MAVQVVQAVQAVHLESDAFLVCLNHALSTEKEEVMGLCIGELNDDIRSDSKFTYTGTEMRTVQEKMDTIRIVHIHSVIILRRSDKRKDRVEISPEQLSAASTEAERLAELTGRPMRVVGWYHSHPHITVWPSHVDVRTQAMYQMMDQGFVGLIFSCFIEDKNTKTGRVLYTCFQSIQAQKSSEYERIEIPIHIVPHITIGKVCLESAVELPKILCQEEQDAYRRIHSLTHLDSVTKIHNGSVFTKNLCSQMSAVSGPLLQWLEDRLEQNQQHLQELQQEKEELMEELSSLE
UniProt P46736: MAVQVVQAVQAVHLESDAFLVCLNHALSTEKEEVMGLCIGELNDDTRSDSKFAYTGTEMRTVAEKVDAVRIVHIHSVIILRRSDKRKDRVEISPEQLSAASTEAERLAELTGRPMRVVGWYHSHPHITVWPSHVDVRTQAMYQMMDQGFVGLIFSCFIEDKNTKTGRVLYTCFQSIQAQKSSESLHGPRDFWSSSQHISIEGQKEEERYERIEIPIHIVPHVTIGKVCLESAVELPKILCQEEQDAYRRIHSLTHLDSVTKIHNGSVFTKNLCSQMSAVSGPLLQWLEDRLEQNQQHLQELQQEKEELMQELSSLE

What was measured:
[1] = biological target: NLRP3, endogenous in mouse BMDMs (mouse (endogenous in BMDMs)) (UniProt Q8R4B8); test: co-IP; endogenous proteins in mouse BMDM lysates; LPS-primed, unstimulated or nigericin 30 min (Figure 1C); mock or LPS-primed WT and Vdr-/- BMDMs, anti-NLRP3 IP (Figure 4B); RIPA buffer, Protein A/G-Agarose, immunoblot
Flag-NLRP3 [2] = biological target: Flag-NLRP3 (UniProt Q96P20); test: co-IP; HEK293T cells transiently co-transfected; RIPA lysis buffer (50 mM Tris pH 7.4, 150 mM NaCl, 1% NP-40, 0.25% sodium deoxycholate); antibody overnight, Protein A/G-Agarose; immunoblot; with or without co-expressed VDR or VDR-LBD in Figures 4C,D (anti-Flag IP)
[3] = biological target: NLRP3, endogenous in mouse BMDMs (mouse (endogenous in BMDMs)) (UniProt Q8R4B8); test: co-IP; endogenous proteins in mouse BMDM lysates; LPS-primed, unstimulated or nigericin 30 min (Figure 1C); mock or LPS-primed WT and Vdr-/- BMDMs, anti-NLRP3 IP (Figure 4B); RIPA buffer, Protein A/G-Agarose, immunoblot; remark: listed apart in the source
[4] = biological target: Myc-tagged wild-type NLRP3 (UniProt Q96P20); test: co-IP; HEK293T cells transiently co-transfected; RIPA lysis buffer (50 mM Tris pH 7.4, 150 mM NaCl, 1% NP-40, 0.25% sodium deoxycholate); antibody overnight, Protein A/G-Agarose; immunoblot; with or without co-expressed VDR or VDR-LBD in Figures 4C,D (anti-Flag IP)
ASC = ASC (UniProt Q9ULZ3); test: as above
pro-caspase-1 = pro-caspase-1 (UniProt P29466); test: as above
Flag-NLRP3 [5] = biological target: Flag-NLRP3 (UniProt Q96P20); test: as above; remark: listed apart in the source

- binding [1]: binds
Molecule: BRCC3, endogenous in mouse BMDMs (from UniProt P46737 1-291) (enzyme)

- binding [3]: binds
B1: VDR, endogenous in mouse BMDMs (protein, UniProt P48281 1-422)
chain: MEAMAASTSLPDPGDFDRNVPRICGVCGDRATGFHFNAMTCEGCKGFFRRSMKRKALFTCPFNGDCRITKDNRRHCQACRLKRCVDIGMMKEFILTDEEVQRKREMIMKRKEEEALKDSLRPKLSEEQQHIIAILLDAHHKTYDPTYADFRDFRPPIRADVSTGSYSPRPTLSFSGDSSSNSDLYTPSLDMMEPASFSTMDLNEEGSDDPSVTLDLSPLSMLPHLADLVSYSIQKVIGFAKMIPGFRDLTSDDQIVLLKSSAIEVIMLRSNQSFTLDDMSWDCGSQDYKYDITDVSRAGHTLELIEPLIKFQVGLKKLNLHEEEHVLLMAICIVSPDRPGVQDAKLVEAIQDRLSNTLQTYIRCRHPPPGSHQLYAKMIQKLADLRSLNEEHSKQYRSLSFQPENSMKLTPLVLEVFGNEIS

The next lines start with the molecule.

Molecule: HA-BRCC3 (from UniProt P46736 1-316) (enzyme)
- binding (Flag-NLRP3 [2]): binds

B2: GST-human VDR (natural protein, UniProt P11473 1-427, looked up)
chain: MEAMAASTSLPDPGDFDRNVPRICGVCGDRATGFHFNAMTCEGCKGFFRRSMKRKALFTCPFNGDCRITKDNRRHCQACRLKRCVDIGMMKEFILTDEEVQRKREMILKRKEEEALKDSLRPKLSEEQQRIIAILLDAHHKTYDPTYSDFCQFRPPVRVNDGGGSHPSRPNSRHTPSFSGDSSSSCSDHCITSSDMMDSSSFSNLDLSEEDSDDPSVTLELSQLSMLPHLADLVSYSIQKVIGFAKMIPGFRDLTSEDQIVLLKSSAIEVIMLRSNESFTMDDMSWTCGNQDYKYRVSDVTKAGHSLELIEPLIKFQVGLKKLNLHEEEHVLLMAICIVSPDRPGVQDAALIEAIQDRLSNTLQTYIRCRHPPPGSHLLYAKMIQKLADLRSLNEEHSKQYRCLSFQPECSMKLTPLVLEVFGNEIS
notes: human vitamin D receptor in pGEX-6P1; also called GST-VDR; pGEX6p-1-GST-VDR; source: E. coli BL21(DE3), IPTG-induced; called purified in the legend
- binding [4]: binds
- binding (ASC): no binding
- binding (pro-caspase-1): no binding
- binding (Flag-NLRP3 [5]): binds
